# Data from PubChem BioAssay AID504332 (National Center for Advancing Translational Sciences (NCATS), 2011).
# Among all 350,000 compounds or so, about 31,000 (8.9%) were called active. Inconclusive results, whose numbers are uncertain, are shown with a selection of clear calls. Calls follow the shape of the dose curve; as a rule, active = well fitted inhibition curve with a large enough effect; inconclusive = small, poorly fitted or top-dose-only effect; inactive = no such curve, though single readings can be large or run the other way. Potencies beside an inconclusive call are fits to weak or partial responses and may not hold up.
# Biological target: Histone-lysine N-methyltransferase EHMT2 (Homo sapiens) (UniProt Q96KQ7)
# Experiment: qHTS Assay for Inhibitors of Histone Lysine Methyltransferase G9a; also: nearly all actives have a fitted effect of over 75% in size
# Conditions: G9a H3K9 monomethylation, AlphaScreen, 2 h; activity, negative = inhibition: at 59 µM (top of the series) unless noted
# From the text: Methylated lysines, on the N-terminal tails of histone proteins serve as epigenetic markers to recruit factors that can then modify local chromatin structure to lead to functional consequences. G9a and other members of the SUV39 family of the SET domain-containing superfamily of histone lysine methyltransferases (HMT) have been identified to specifically methylate Lys9 of histone H3 (H3K9). G9a catalyzes the mono- and di-methylation of H3K9 in mammalian euchromatic regions, where the resulting H3K9me2 is indicative of transcriptional repression. […] The inhibition of G9a will result in transcriptional activation and work synergistically with DNA methyltransferase and histone deacetylase inhibitors, to kill cancer cells. This qHTS assay for identification of G9a inhibitors is a chemiluminescence based AlphaScreen (PerkinElmer). Methylation of biotinylated-histone peptide is measured through specific antibody-based detection, in conjunction with streptavidin-coated donor and anti-IgG antibody-coated acceptor beads. The method is particularly well suited for detection of inhibitors acting by the desired histone peptide competitive mechanism and is applicable to testing other HMTs. Although AlphaScreen has significant advantages with its utility in a variety of epigenetic target assays, the primary screening data provided in this deposition should be used with caution due to the prevalence of screening artifacts. An AlphaScreen counterscreen is highly recommended to be run against any putative actives to eliminate non specific artifacts. Alternatively, one can use other AlphaScreen assays in PubChem to filter out promiscuous hits. Quinn et al. A chemiluminescence-based method for identification of histone lysine methyltransferase inhibitors. Mol Biosyst 6(5): 782-8. 2010. PMID: 20567762 [2] Baell,Holloway. New substructure filters for removal of pan assay interference compounds (PAINS) from screening libraries and for their exclusion in bioassays. J Med Chem. 53(7):2719-40. 2010. PMID: 20131845 NIH Molecular Libraries Probe Production Network [MLPCN] NIH Chemical Genomics Center [NCGC] Structural Genomics Consortium (SGC) NIH Grant: 5U54 MH084681-02
# To each well of a 1,536w plate, 2ul of HMT enzyme (final 20nM) were added, using a nanoliter dispenser. The G9a- and GLP-inhibitor BIX-01294 (CID: 25150857) are used as an intraplate control, with a 16-point titration in duplicate. A Kalypsys pin-tool transferred 23nl of library compound solution in DMSO to each well. Following a 15 min incubation of enzyme with compounds at room temperature, 1ul mixture of b-H3K9 peptide substrate (final 500nM) and SAM cofactor (final 20uM) were added. Reactions were allowed to proceed at room temperature for 2 hours. Methylated b-H3K9 peptide product was detected with 0.5 ug/mL rabbit polyclonal anti-monomethyl histone H3K9 antibody (Abcam Inc., Cambridge, MA) and 20 ug/mL each streptavidin-coated donor and anti-rabbit IgG acceptor AlphaScreen beads. Antibody and beads were added in a 1ul dispense, for a final volume of 4ul, and plates were incubated, protected from the light, for 10 min at room temperature. Microplates were then read on an EnVision multilabel plate reader using the 1,536 plate HTS AlphaScreen aperture (excitation time 80 ms, measurement time 240 ms).
# % is scaled to controls: 0 for no effect and ±100 for the full control effect; potency is read from the fitted curve at half-maximal effect; tags tell the direction and shape of the fitted curve.
# UniProt Q96KQ7, sequence (Q96KQ7 whole entry, looked up): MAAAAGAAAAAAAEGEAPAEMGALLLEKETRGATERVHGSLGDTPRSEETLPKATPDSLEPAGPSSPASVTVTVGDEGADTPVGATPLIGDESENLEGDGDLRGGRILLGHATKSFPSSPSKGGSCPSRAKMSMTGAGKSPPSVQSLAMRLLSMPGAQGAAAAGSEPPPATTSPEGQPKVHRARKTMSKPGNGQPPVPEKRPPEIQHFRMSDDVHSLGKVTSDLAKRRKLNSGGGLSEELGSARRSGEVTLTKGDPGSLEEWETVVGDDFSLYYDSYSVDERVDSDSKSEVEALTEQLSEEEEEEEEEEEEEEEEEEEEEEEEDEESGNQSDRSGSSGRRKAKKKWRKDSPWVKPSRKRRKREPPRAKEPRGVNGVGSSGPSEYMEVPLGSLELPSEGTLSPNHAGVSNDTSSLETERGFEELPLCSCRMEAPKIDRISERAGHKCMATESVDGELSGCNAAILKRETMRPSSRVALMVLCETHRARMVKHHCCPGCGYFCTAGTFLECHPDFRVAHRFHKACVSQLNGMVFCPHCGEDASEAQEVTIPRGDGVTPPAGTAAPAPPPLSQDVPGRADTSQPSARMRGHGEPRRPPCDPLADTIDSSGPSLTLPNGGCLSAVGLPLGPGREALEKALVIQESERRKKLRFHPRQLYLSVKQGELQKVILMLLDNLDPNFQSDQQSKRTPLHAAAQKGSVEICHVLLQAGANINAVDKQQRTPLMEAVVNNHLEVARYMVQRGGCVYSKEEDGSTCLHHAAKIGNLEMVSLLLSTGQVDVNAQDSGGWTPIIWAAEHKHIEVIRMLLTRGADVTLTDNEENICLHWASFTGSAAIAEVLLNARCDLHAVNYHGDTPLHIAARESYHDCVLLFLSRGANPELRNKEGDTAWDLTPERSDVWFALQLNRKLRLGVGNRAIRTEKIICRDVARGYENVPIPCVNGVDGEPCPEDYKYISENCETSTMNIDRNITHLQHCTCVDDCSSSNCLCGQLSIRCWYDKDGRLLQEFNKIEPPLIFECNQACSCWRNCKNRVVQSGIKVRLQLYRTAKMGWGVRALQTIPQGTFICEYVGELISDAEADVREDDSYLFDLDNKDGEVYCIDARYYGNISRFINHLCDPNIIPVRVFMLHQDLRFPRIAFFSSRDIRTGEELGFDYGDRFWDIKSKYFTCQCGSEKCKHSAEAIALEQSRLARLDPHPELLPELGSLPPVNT
Compound,Potency,"activity, negative = inhibition"
CCC1CCCCN1C(=O)CSc1nnc(CNC(=O)c2ccco2)o1 (stereo not given),"inconclusive: 100 µM [inhibitor, single point]",–
CN(CC(O)COc1c(F)cc(Br)cc1F)C1CCCCC1 (stereo not given),–,inactive: 9.63%
CCOc1ccc(-n2c(SCC(=O)Nc3ccc(CC)cc3)nc3n[nH]c(C)c3c2=N)cc1,"inconclusive: 3.98 µM [inhibitor, partial curve, poor fit]",–
COc1ccc(NC(=O)CC2C(=O)N(c3cccc(OC)c3)C(=O)N2CCC2=CCCCC2)cc1 (stereo not given),–,inactive: 14.7%
O=C(NC(=S)NNC(=O)c1ccco1)c1ccc(Br)cc1,active: 22.4 µM,–
C=CCOc1ccc(CNc2nn[nH]n2)cc1OC,–,inactive: -1.66%
CC(C)OCC(O)CN1CCNCC1 (stereo not given),"inconclusive: 70.8 µM [inhibitor, single point]",–
CCN(CC)CCNc1ncnc2c1sc1nc(N3CCCC3)c3c(c12)CC(C)(C)OC3,–,inconclusive: -64.1% [inhibitor]
COc1cc2ccccc2cc1C(=O)N(CCN(C)C)c1nc2c(C)cccc2s1,active: 12.6 µM,–
CCOc1ccccc1CNS(=O)(=O)c1cc2c(cc1C)NC(=O)CO2,–,inactive: 3.97%
CCC(C)(C)C1CCc2c(sc(N)c2C(N)=O)C1 (stereo not given),"inconclusive: 28.2 µM [inhibitor, single point]",–
CS(=O)(=O)c1cccc(C(=O)Nc2ccc(S(=O)(=O)N3CCCCC3)cc2)c1,"inconclusive: 56.2 µM [inhibitor, partial curve]",–
CCC(=O)N1CCN(c2nc3ccccc3s2)CC1,"inconclusive: 25.1 µM [inhibitor, single point]",–
Nc1ccc(C(=O)Nc2nccs2)cc1,"inconclusive: 14.1 µM [inhibitor, partial curve]",–
Cc1sc2ncnc(SCC(=O)N3CCCC3)c2c1C,"inconclusive: 89.1 µM [inhibitor, partial curve, poor fit]",–
CN(C=O)CP(=O)(O)CN1CCCCC1,–,inactive: -11.6% [at 12.7 µM]
CCOC(=O)N1CCC2(CC1)C(C#N)=C(N)Oc1c2c(C)nn1-c1cccc(Cl)c1,"inconclusive: 39.8 µM [inhibitor, single point]",–
CCN(CC)CCCC(C)NC(=O)c1cccc(S(=O)(=O)N2CCc3ccccc32)c1 (stereo not given),active: 44.7 µM,–

Compound,Potency,"activity, negative = inhibition"
O=C(CSc1nc(-c2ccco2)cc(C(F)(F)F)n1)NCCCn1ccnc1,"inconclusive: 0.631 µM [inhibitor, full curve, poor fit]",–
CC(=O)OCC1=C(C(=O)O)N2C(=O)C(NC(=O)Cc3ccccc3)C2SC1 (stereo not given),"inconclusive: 2.51 µM [inhibitor, partial curve, poor fit]",–
COc1ccc(NC(=S)N(CCN(C)C)C(C)c2ccco2)cc1 (stereo not given),–,inactive: -14%
CCOC(=O)c1c(NC(=O)C[n+]2ccccc2)sc2c1CCCC2,"inconclusive: 79.4 µM [inhibitor, single point]",–
COc1cc(/C=C(\C#N)c2ccccn2)cc(OC)c1O,–,inconclusive: -98.6% [inhibitor]
CCc1nnc(NC(=O)CSc2ccc(-c3ccc(F)cc3)nn2)s1,active: 44.7 µM,–
COCCCNCC(=O)c1c(N)n(Cc2ccccc2)c(=O)n(C)c1=O,"inconclusive: 25.1 µM [inhibitor, full curve, poor fit]",–
Cc1nnc(SCC(=O)NC(=O)NC(C)(C)C)n1N,"inconclusive: 22.4 µM [inhibitor, single point]",–
Cc1cc(/C=N/NC(=O)c2cccs2)c(C)n1-c1ccccc1,"inconclusive: 79.4 µM [inhibitor, single point]",–
Cc1nn(C(C)C(=O)O)c(C)c1[N+](=O)[O-] (stereo not given),–,inactive: 20% [at 0.501 µM]
CCOc1cc2c(cc1OCC)C(CC(=O)O)N(C(=O)Nc1ccc(Br)c(C)c1)CC2 (stereo not given),"inconclusive: 17.8 µM [inhibitor, partial curve]",–
COc1ccc(C(=O)Nc2ccc(N3CCCCCC3)cc2)cc1S(=O)(=O)N1CCOCC1,"inconclusive: 2 µM [inhibitor, partial curve, poor fit]",–
O=C1N2CCCc3cccc(c32)C12Nc1ccccc1S2 (stereo not given),–,inactive: -8.9% [at 12.7 µM]
CCCNCc1cc(OC)c(OCc2ccccc2)cc1Br,"inconclusive: 44.7 µM [inhibitor, partial curve]",–
COC(=O)c1cc(C(=O)N2CCN(c3ncccn3)CC2)cc([N+](=O)[O-])c1,"inconclusive: 79.4 µM [inhibitor, single point]",–
CNS(=O)(=O)c1ccc(N=Cc2c(C)[nH]n(-c3ccc(C)cc3C)c2=O)cc1,"inconclusive: 50.1 µM [inhibitor, partial curve]",–
CC1(C)CC(=O)C(C=Nc2ccc3cn[nH]c3c2)=C(O)C1,"inconclusive: 89.1 µM [inhibitor, single point]",–
